# The other results are listed elsewhere or left out.
# B1: BT3172pd (Bacteroides thetaiotaomicron) (protein)
# chain: MLPLRAEHYYYKQISLKEGLPSNVRCILRDEQGFIWIGTKAGLGKFDGHQLKRYKHQANDPHSLLHNLIYQIAEDKQHNIWILTEKGIARYQQQSNNFTFPTDEEGNYITAYSFCLVPDGILFGGKDRIYKYSYKDSSLRLLQYFNANSFKITALSVWDSKTLLCCSRWTGLYLVDLQTGEHRRPPFDCGPEITSMITDSKNRIWIAPYSGGLRCYSRDGKLSASYTTHNSSLSNDIVLSLAEREEQLWIGTDGGGINILHPETGEISQLEYIPGRENYSLPANSILCLHNDYNNNVWAGSTCNGLISIREVSMKTYTDVVPGNDRGLSNGTVRSLYRQSPDSIWIGTDGGGINLFSPHTEKFTHYSSTWGDKVAFISGFTPGKLLISLFSKGVFVFNPATGEKQPFTIIDKETTTRLCNRGKSVNLYQNTPNTVLFLGDHIYQYHLKEKKFSTITEEEGKDIVGTLVPFDHQENLTYINDIKHIYELDDQTSRLKTVFECYTDTVISSVSHDEQGHFWIGSNFGLIHYDPVLKSRTLVPTNLFTEINMVLCDQKGKVWIGVDNMLFAYFIKEQKFVLFGESNGAIQNEYLPNARLVNEQGDAYIGGVKGMLRIDGQLLLNTSEMPELQLLDITINGESANHEWYNHPAKISVPWNSNISIRIMSREEDIFRQKIYRYQIEGLNNEYTESYNPELVIRSLLPGSYRIMASCTAKDGSWIPDQQVLELTVLPPWYRTHHHHHH
# Legend:
# Assay in all cases: glycan array binding signal (z-score within array); higher = stronger binding
# Conditions in all cases: glycan notation: IUPAC condensed, linker removed
# [1] = biological target: Gal(b1-4)Glc
# Method in brief: (§1)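 Columns mapping to the same glycan were averaged after glycan names were converted to IUPAC-condensed notation. The data come from 3228 arrays in the Consortium for Functional Glycomics database, limited to those with an available protein sequence. Binding is reported as a within-array Z-score averaged across arrays of one protein sequence and across linkers.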
# [2] = biological target: Gal(b1-4)Glc6S
# Method in brief: as §1
# [3] = biological target: Gal(b1-4)GlcNAc
# Method in brief: as §1
# [4] = biological target: Gal(b1-4)GlcNAc(a1-6)Gal(b1-4)GlcNAc
# Method in brief: as §1
# [5] = biological target: Gal(b1-4)GlcNAc(b1-2)Man
# Method in brief: as §1
# [6] = biological target: Gal(b1-4)GlcNAc(b1-2)Man(a1-3)Man(b1-4)GlcNAc(b1-4)GlcNAc
# Method in brief: as §1
# [7] = biological target: Gal(b1-4)GlcNAc(b1-2)Man(a1-3)[Gal(b1-4)GlcNAc(b1-2)Man(a1-6)]Man(b1-4)GlcNAc(b1-4)GlcNAc
# Method in brief: as §1
# [8] = biological target: Gal(b1-4)GlcNAc(b1-2)Man(a1-3)[Gal(b1-4)GlcNAc(b1-2)Man(a1-6)]Man(b1-4)GlcNAc(b1-4)[Fuc(a1-6)]GlcNAc
# Method in brief: as §1
# [9] = biological target: Gal(b1-4)GlcNAc(b1-2)Man(a1-3)[Gal(b1-4)GlcNAc(b1-2)Man(a1-6)][Gal(b1-4)GlcNAc(b1-4)]Man(b1-4)GlcNAc(b1-4)[Fuc(a1-6)]GlcNAc
# Method in brief: as §1
# [10] = biological target: Gal(b1-4)GlcNAc(b1-2)Man(a1-3)[Gal(b1-4)GlcNAc(b1-2)Man(a1-6)][GlcNAc(b1-4)]Man(b1-4)GlcNAc(b1-4)[Fuc(a1-6)]GlcNAc
# Method in brief: as §1
# [11] = biological target: Gal(b1-4)GlcNAc(b1-2)Man(a1-3)[GlcNAc(b1-2)Man(a1-6)]Man(b1-4)GlcNAc(b1-4)GlcNAc
# Method in brief: as §1
# [12] = biological target: Gal(b1-4)GlcNAc(b1-2)Man(a1-3)[GlcNAc(b1-4)][Gal(b1-4)GlcNAc(b1-2)Man(a1-6)]Man(b1-4)GlcNAc(b1-4)GlcNAc
# Method in brief: as §1
# [13] = biological target: Gal(b1-4)GlcNAc(b1-2)Man(a1-3)[Man(a1-6)]Man(b1-4)GlcNAc(b1-4)GlcNAc
# Method in brief: as §1
# [14] = biological target: Gal(b1-4)GlcNAc(b1-2)Man(a1-6)Man(b1-4)GlcNAc(b1-4)GlcNAc
# Method in brief: as §1
# [15] = biological target: Gal(b1-4)GlcNAc(b1-2)Man(a1-6)[GlcNAc(b1-2)Man(a1-3)]Man(b1-4)GlcNAc(b1-4)GlcNAc
# Method in brief: as §1
# [16] = biological target: Gal(b1-4)GlcNAc(b1-2)Man(a1-6)[Man(a1-3)]Man(b1-4)GlcNAc(b1-4)GlcNAc
# Method in brief: as §1
# [17] = biological target: Gal(b1-4)GlcNAc(b1-2)[Gal(b1-4)GlcNAc(b1-4)]Man(a1-3)[Gal(b1-4)GlcNAc(b1-2)Man(a1-6)]Man(b1-4)GlcNAc(b1-4)GlcNAc
# Method in brief: as §1
# [18] = biological target: Gal(b1-4)GlcNAc(b1-2)[Gal(b1-4)GlcNAc(b1-4)]Man(a1-3)[Gal(b1-4)GlcNAc(b1-2)[Gal(b1-4)GlcNAc(b1-6)]Man(a1-6)]Man(b1-4)GlcNAc(b1-4)GlcNAc
# Method in brief: as §1
# [19] = biological target: Gal(b1-4)GlcNAc(b1-2)[Gal(b1-4)GlcNAc(b1-4)]Man(a1-3)[GlcNAc(b1-4)][Gal(b1-4)GlcNAc(b1-2)Man(a1-6)]Man(b1-4)GlcNAc(b1-4)GlcNAc
# Method in brief: as §1
# [20] = biological target: Gal(b1-4)GlcNAc(b1-2)[Gal(b1-4)GlcNAc(b1-4)]Man(a1-3)[GlcNAc(b1-4)][Gal(b1-4)GlcNAc(b1-2)[Gal(b1-4)GlcNAc(b1-6)]Man(a1-6)]Man(b1-4)GlcNAc(b1-4)GlcNAc
# Method in brief: as §1
# [21] = biological target: Gal(b1-4)GlcNAc(b1-2)[Gal(b1-4)GlcNAc(b1-6)]Man(a1-6)[Gal(b1-4)GlcNAc(b1-2)Man(a1-3)]Man(b1-4)GlcNAc(b1-4)GlcNAc
# Method in brief: as §1
# [22] = biological target: Gal(b1-4)GlcNAc(b1-2)[Gal(b1-4)GlcNAc(b1-6)]Man(a1-6)[Gal(b1-4)GlcNAc(b1-2)Man(a1-3)]Man(b1-4)GlcNAc(b1-4)[Fuc(a1-6)]GlcNAc
# Method in brief: as §1
# [23] = biological target: Gal(b1-4)GlcNAc(b1-2)[Gal(b1-4)GlcNAc(b1-6)]Man(a1-6)[GlcNAc(b1-4)][Gal(b1-4)GlcNAc(b1-2)Man(a1-3)]Man(b1-4)GlcNAc(b1-4)GlcNAc
# Method in brief: as §1
# [24] = biological target: Gal(b1-4)GlcNAc(b1-2)[Gal(b1-4)GlcNAc(b1-6)]Man(a1-6)[GlcNAc(b1-4)][Gal(b1-4)GlcNAc(b1-2)[Gal(b1-4)GlcNAc(b1-4)]Man(a1-3)]Man(b1-4)GlcNAc(b1-4)[Fuc(a1-6)]GlcNAc
# Method in brief: as §1
# [25] = biological target: Gal(b1-4)GlcNAc(b1-3)Gal(b1-3)GalNAc
# Method in brief: as §1
# [26] = biological target: Gal(b1-4)GlcNAc(b1-3)Gal(b1-3)GlcNAc
# Method in brief: as §1
# [27] = biological target: Gal(b1-4)GlcNAc(b1-3)Gal(b1-4)Glc
# Method in brief: as §1
# [28] = biological target: Gal(b1-4)GlcNAc(b1-3)Gal(b1-4)GlcNAc
# Method in brief: as §1
# [29] = biological target: Gal(b1-4)GlcNAc(b1-3)Gal(b1-4)GlcNAc(b1-2)Man(a1-3)[Gal(b1-4)GlcNAc(b1-3)Gal(b1-4)GlcNAc(b1-2)Man(a1-6)]Man(b1-4)GlcNAc(b1-4)GlcNAc
# Method in brief: as §1
# [30] = biological target: Gal(b1-4)GlcNAc(b1-3)Gal(b1-4)GlcNAc(b1-2)Man(a1-3)[Gal(b1-4)GlcNAc(b1-3)Gal(b1-4)GlcNAc(b1-2)Man(a1-6)]Man(b1-4)GlcNAc(b1-4)[Fuc(a1-6)]GlcNAc
# Method in brief: as §1
binder,measurement,setting,value
B1,glycan array binding signal (z-score),[1],0.422
same,glycan array binding signal (z-score),[2],2.32
same,glycan array binding signal (z-score),[3],0.216
same,glycan array binding signal (z-score),[4],-0.411
same,glycan array binding signal (z-score),[5],0.948
same,glycan array binding signal (z-score),[6],0.77
same,glycan array binding signal (z-score),[7],-0.884
same,glycan array binding signal (z-score),[8],-0.075
same,glycan array binding signal (z-score),[9],-0.646
same,glycan array binding signal (z-score),[10],-0.967
same,glycan array binding signal (z-score),[11],-0.146
same,glycan array binding signal (z-score),[12],-0.425
same,glycan array binding signal (z-score),[13],-0.349
same,glycan array binding signal (z-score),[14],-0.309
same,glycan array binding signal (z-score),[15],0.924
same,glycan array binding signal (z-score),[16],-0.54
same,glycan array binding signal (z-score),[17],0.034
same,glycan array binding signal (z-score),[18],-0.785
same,glycan array binding signal (z-score),[19],-0.47
same,glycan array binding signal (z-score),[20],-0.569
same,glycan array binding signal (z-score),[21],0.117
same,glycan array binding signal (z-score),[22],0.113
same,glycan array binding signal (z-score),[23],0.038
same,glycan array binding signal (z-score),[24],-0.188
same,glycan array binding signal (z-score),[25],-0.351
same,glycan array binding signal (z-score),[26],-0.739
same,glycan array binding signal (z-score),[27],-0.591
same,glycan array binding signal (z-score),[28],-0.445
same,glycan array binding signal (z-score),[29],0.129
same,glycan array binding signal (z-score),[30],-0.257
